Assay results: PubChem BioAssay AID624418 (National Center for Advancing Translational Sciences (NCATS), 2012)
Hit rate of the full screen: of about 410,000 compounds, about 530 (0.13%) were called active. This list was built around the results that the source calls inconclusive (neither active nor inactive); the mix of calls is not that of the screen. The call rests on the fitted dose curve; in most records, active means well fitted inhibition curve with a large enough effect; inconclusive means small, poorly fitted or top-dose-only effect, or another doubt; inactive means no such curve, though single readings can be large or run the other way. Potencies of inconclusive entries are doubtful fits and often do not repeat.

Assay: qHTS of GLP-1 Receptor Inverse Agonists: Cytotox Screen
Conditions: HEK293 cAMP-luciferase reporter cells, luminescence, 24 h; activity change, negative = inhibition: at 38.3 µM (top of the series) unless noted
Outline: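 Compound-treated cells are incubated 24 hr at 37 deg C under 5% CO2 after a 12 hour attachment period, then luciferase detection reagent is added and luminescence is measured following 12 min at room temperature; lowered signal indicates toxicity.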
On the % scale 0 is the no-effect control and ±100 the full control effect; potency means the concentration at half of the fitted maximal effect.

Row | SMILES | Potency | activity change, negative = inhibition
1 | CCC(c1ccccc1)C(CC)c1cc(O)c(O)c(O)c1 (stereo not given) | inconclusive: 14.1 µM [inhibitor, single point] | 
2 | CN(C)CCCn1c(SCC(=O)Nc2nc(-c3cccc(Br)c3)cs2)nc2ccccc2c1=O | inconclusive: 28.2 µM [inhibitor, single point] | 
3 | CNCCCOc1ccc(C)cc1Br | inconclusive: 28.2 µM [inhibitor, single point] | 
4 | COc1cc(OC)cc(C(=O)NC(=S)NCCc2ccccc2)c1 | inconclusive: 10 µM [inhibitor, single point] | 
5 | Cc1ccccc1Nc1ncnc2c1cnn2-c1ccccc1 | inactive | 
6 | Cc1ccc(F)cc1-c1cc2nc(NCCCN(C)C)n(C)c(=O)c2s1 | inconclusive: 28.2 µM [inhibitor, single point] | 
7 | COc1ccc(NC(=O)c2cc(Cl)ccc2NC(=O)c2ccco2)c(OC)c1 | inconclusive: 22.4 µM [inhibitor, single point] | 
8 | O=C(CSc1nc2ccccc2s1)N1c2ccccc2Sc2ccc(Cl)cc21 | inactive | 
9 | COc1ccc(C(=O)NN/C=C/C(=O)c2ccc(Br)cc2)cc1 | inconclusive: 10 µM [inhibitor, partial curve, poor fit] | 
10 | CCCCNC(=O)c1ccc2c(c1)N(CC)C(=O)c1ccccc1S2(=O)=O | inactive | 
11 | C/C(N)=C(/C#N)C(=O)CSc1nnc(Nc2cccc(C)c2)s1 | inconclusive: 1.12 µM [inhibitor, full curve, poor fit] | 
12 | CCN1CCN(c2cc(C)c3cc(NC(=O)c4cccc(OC)c4)ccc3n2)CC1 | inconclusive: 31.6 µM [inhibitor, single point] | 
13 | Cn1c(=O)[nH]c(=O)c2c1nc(N1CCCCC1)n2CC(O)COc1ccc([N+](=O)[O-])cc1 (stereo not given) | inconclusive: 3.55 µM [inhibitor, partial curve, poor fit] | 
14 | CC(O)CNCCNCc1c(OCc2ccccc2)ccc2ccccc12 (stereo not given) | inconclusive: 11.2 µM [inhibitor, single point] | 
15 | [O-][n+]1c2ccccc2[n+]([O-])c2cc(O)ccc21 |  | inconclusive: -65.4% [inhibitor]
16 | CCN1CCN(Cc2ccc(NC(=O)Nc3ccccc3Cl)cc2)CC1 | inconclusive: 28.2 µM [inhibitor, single point] | 
17 | COc1ccc(-c2nc(Cn3c(SCc4ccc(C)cc4)nc4ccncc43)c(C)o2)cc1OC | inconclusive: 28.2 µM [inhibitor, single point] | 
18 | COc1cccc(/C=N/Nc2ncnc3scc(-c4ccccc4)c23)c1OC | inconclusive: 12.6 µM [inhibitor, partial curve, poor fit] | 
19 | COc1cccc(/C=C2/Sc3ccc(C(=O)NCCN4CCCCCC4)cc3NC2=O)c1 | inconclusive: 28.2 µM [inhibitor, single point] | 
20 | Cc1ccc(Cn2nnc3c(=O)n(CC(=O)NCc4ccco4)cnc32)cc1 | inconclusive: 3.55 µM [inhibitor, partial curve] | 
21 | O=C(NCC1CCCO1)c1ccc2c(c1)N(Cc1ccccc1)C(=O)CS2=O (stereo not given) | inconclusive: 28.2 µM [inhibitor, single point] | 
22 | CN=c1scc(-c2ccc(F)cc2)n1/N=C/c1ccc(O)c(O)c1 | inconclusive: 12.6 µM [inhibitor, single point] | 
23 | CCN1CCCC1CNC(=O)c1ccc(Sc2ccccc2Cl)c([N+](=O)[O-])c1 (stereo not given) | inactive | 
24 | Cc1cccc(NC(=S)NN(Cc2ccccc2)c2ccccc2)c1C | inconclusive: 28.2 µM [inhibitor, single point] | 

Row | SMILES | Potency | activity change, negative = inhibition
25 | CN(C(=O)CSc1nc2ccc(NC(=O)c3cccc(F)c3)cc2s1)c1ccccc1 | inconclusive: 8.91 µM [inhibitor, partial curve, poor fit] | 
26 | O=C(CCl)Nc1cc(-c2ccccc2)nn1-c1ccccc1 | inconclusive: 10 µM [inhibitor, partial curve] | 
27 | O=C(NCCc1ccccc1)c1ccc([N+](=O)[O-])cc1 | inactive | 
28 | COc1cccc(CNC(=O)C2CCN(C(=O)N3CCOc4ccc(Cl)cc43)CC2)c1OC | inactive | 
29 | Cc1cc(NCc2ccccn2)n2nc(C)c(-c3ccc(Cl)cc3)c2n1 | inconclusive: 1.26 µM [inhibitor, full curve, poor fit] | 
30 | CCOC(=O)c1c(C(F)(F)C(F)(F)C(F)(F)C(F)(F)F)n[nH]c1C | inconclusive: 12.6 µM [inhibitor, single point] | 
31 | CCC(Oc1ccccc1)C(=O)Nc1nc2ccccc2[nH]1 (stereo not given) | inactive | 
32 | CCC(CC)c1nnc(NC(=O)C2COc3ccccc3O2)s1 (stereo not given) | inactive | 
33 | Cc1c(NC(=O)Nc2ccc(Cl)c(Cl)c2)sc(=S)n1C | inconclusive: 28.2 µM [inhibitor, single point] | 
34 | CCn1c2ccccc2c2cc(NS(=O)(=O)c3ccc(C)cc3)ccc21 | inconclusive: 8.91 µM [inhibitor, partial curve, poor fit] | 
35 | O=C(CSc1nc2ncc(Br)cc2[nH]1)Nc1ccccc1-c1ccccc1 | inconclusive: 22.4 µM [inhibitor, single point] | 
36 | CCC(ONc1ccccc1C(F)(F)F)(C(=O)NN(C)C)c1ccccc1 (stereo not given) | inconclusive: 28.2 µM [inhibitor, single point] | 
37 | Cn1c(C(=O)Nc2ccc(Cl)cc2)cc2cc(Cl)ccc21 | inactive | 
38 | c1ccc(CN=C(NCc2ccccc2)NCc2ccccc2)cc1 | inconclusive: 12.6 µM [inhibitor, single point] | 
39 | COc1cc(CN2CCC(C(=O)NC(c3ccc(F)cc3)c3ccc4ccccc4n3)CC2)cc(OC)c1 (stereo not given) | inactive | 
40 | CCOC(=O)c1c[nH]c(=S)n(-c2ccccc2)c1=O | inactive | 
41 | CN1CCN(c2ccccc2NC(=S)NC(=O)c2cc3ccccc3o2)CC1 | inconclusive: 11.2 µM [inhibitor, partial curve, poor fit] | 
42 | O=C(CN1CCN(CC(=O)Nc2ccc3c(c2)OC2(CCCCC2)O3)CC1)Nc1cccc(F)c1 | inconclusive: 28.2 µM [inhibitor, single point] | 
43 | S=C1NCN(Cc2ccco2)CN1CCc1ccccc1 | inconclusive: 28.2 µM [inhibitor, single point] | 
44 | CCOc1ccc(/C=C2\SC(=S)N(CCC(=O)N(CCO)c3ccccc3)C2=O)cc1 | inconclusive: 10 µM [inhibitor, single point] | 
45 | CSC(=S)N/N=C/c1ccccc1 | inconclusive: 2.24 µM [inhibitor, full curve, poor fit] | 
46 | COc1cc(NC(=O)C(C)C)ccc1NC(=O)c1ccco1 | inactive | 
47 | COc1ccccc1CNC(=S)Nc1ccc2nc(N3CCN(C)CC3)cc(C)c2c1 | inconclusive: 28.2 µM [inhibitor, single point] | 
48 | Cn1c(N/N=C/c2cc3ccccc3nc2Cl)nc2ccccc21 | inconclusive: 10 µM [inhibitor, partial curve, poor fit] | 

Row | SMILES | Potency | activity change, negative = inhibition
49 | Cc1ccc(O)c(N=NC2=C(O)CC(C)(C)CC2=O)c1 | active: 12.6 µM | 
50 | O=C(c1cccs1)c1no[n+]([O-])c1C(=O)c1cccs1 | inconclusive: 28.2 µM [inhibitor, single point] | 
51 | Cc1ccc(-c2nc(CS(=O)(=O)CC(=O)NCCCN(Cc3ccccc3)C(C)C)c(C)o2)cc1 | inconclusive: 11.2 µM [inhibitor, single point] | 
52 | O=C(NNS(=O)(=O)c1ccccc1F)c1ccccc1-n1cccc1 | inconclusive: 28.2 µM [inhibitor, single point] | 
53 | Cc1ccc(NC(=S)NC(=O)C2CC2)c(C)c1 | inconclusive: 11.2 µM [inhibitor, partial curve] | 
54 | O=C(Nc1cccc(Cl)c1)Nc1ccc(Br)cc1F | inconclusive: 12.6 µM [inhibitor, single point] | 
55 | COc1ccc(CCNC(=O)C(=O)NCC(c2ccc3c(c2)OCO3)N2CCOCC2)cc1 (stereo not given) | inactive | 
56 | Cc1cc(C)n(CCCN2CCC(C(=O)Nc3cccc(-c4cccc(F)c4)c3)CC2)n1 | inconclusive: 28.2 µM [inhibitor, single point] | 
57 | CS(=O)(=O)Nc1ccccc1C(=O)Nc1cc(Cl)cc(Cl)c1 | inconclusive: 5.62 µM [inhibitor, partial curve] | 
58 | COc1ccc(-n2c(COc3ccc(C)cc3)nnc2SCC(N)=O)cc1 | inactive | 
59 | CCN1CCCC1CNC(=O)c1[nH]c2ccc(OC)cc2c1C (stereo not given) | inactive | 
60 | Cc1nn2c(NCc3cccnc3)c3c(nc2c1-c1ccccc1)CCC3 | inconclusive: 22.4 µM [inhibitor, single point] | 
61 | Cc1cccc(OCCCCn2c(C3CC(=O)N(c4ccccc4Cl)C3)nc3ccccc32)c1 (stereo not given) | inactive | 
62 | O=C(CC1SC(=Nc2ccc(OC(F)F)cc2)N(CCN2CCOCC2)C1=O)Nc1ccccc1 (stereo not given) | inactive | 
63 | CCOc1ccc(N=Cc2ccc3ccccc3c2)cc1 | inactive | 
64 | Nc1ncnc2c1C1(CCCCC1)Cc1ccccc1-2 | inactive | 
65 | CC(C)NC(=O)C1(S(=O)(=O)c2ccccc2)CC=CC1 | inconclusive: 0.316 µM [inhibitor, full curve, poor fit] | 
66 | CCOC(=O)c1cc(S(=O)(=O)N2CCOCC2)cn1C | inactive | 
67 | CN(C)CCN(C(=O)CCS(=O)(=O)c1ccccc1)c1nc2c(F)cccc2s1 | inactive | 
68 | CCCN(CCC)S(=O)(=O)c1ccc(Cl)c(OC)c1 | inactive | 
69 | CCOC(=O)c1c(CN2CCNCC2)nc2ccc(Cl)cc2c1-c1ccccc1 | inconclusive: 31.6 µM [inhibitor, single point] | 
70 | O=C(Cc1ccc(S(=O)(=O)N2CCCCC2)s1)Nc1ccc(F)c(F)c1 | inconclusive: 31.6 µM [inhibitor, single point] | 
